Assay results from the RNAGym collection of RNA variant scans (doi:10.7554/elife.90254).
Read counts are not given, so values of variants with three or more changes are uncertain.

B1: LINE1-mini (parent)
chain: GGCAGAGCUCAACACAGCGUGGCAAAGUGGCUGUGGCUAGACUGCC

Variants of: B1
Assay: self-cleavage, relative activity (ratio to wild type); higher = more cleavage; in vitro, sequencing; the parent is a self-cleaving ribozyme

Row | Variant | self-cleavage
1 | A12G A16C G40U | 0.09
2 | C8G G17U C23A | 0.01
3 | G7A C13A C18U A24G G35U G36A A41U | 0.07
4 | C3U G7C G30A C31A C37A | 0.11
5 | G7C C18U G36C | 0.2
6 | A12G A14C A25G C42G | 0.01
7 | G2U C13A A25C A26C U34A C42A | 0.01
8 | C8U C13A A25G A39G | 0.1
9 | G2U A12C A26U G35U | 0
10 | G5A A16C G29A | 0.04
11 | G1U G35U C37G | 0.04
12 | G5C A14C C15G C23G G27U | 0
13 | G2C C10A U20C G22U | 0
14 | C15U G21A C46U | 0.03
15 | C8A U20A C46G | 0.04
16 | C15A C18A U34A G35U | 0.14
17 | C8G A14C G21A U28C G30C C37G C46U | 0.02
18 | C10A U28A C46G | 0.06
19 | G27A G29U G30U A41C | 0.09
20 | C10A C31U A39G G40C | 0
21 | A4G G17U G22A G33U G40C A41C | 0.03
22 | A12U A14U C15A G17A G19C C23U G30U G44U | 0.01
23 | G17C U38A A39U U43C | 0.02
24 | G2A G21A G40U | 1.19

Row | Variant | self-cleavage
25 | U9A G30U G40C | 0.04
26 | C3A A11C U20G G40C | 0
27 | A14U G21A C23U A39C C42A | 0.1
28 | G29U C31A U32C | 0.03
29 | U9G C15A G30A | 0.1
30 | G1C A16U A24U G36C C37U G44U | 0.02
31 | A6C C13A G19A G22C | 0.27
32 | G30C C31U G36U | 0.06
33 | G5C C8U G22U C45A | 0.1
34 | A6G G21U A24G C37G | 0.76
35 | G2U G22A C46A | 0.05
36 | G1U C13U G29A G36U | 0.04
37 | C23G G27A U38G | 0.04
38 | A12U A14C G22U | 0.04
39 | G5A A6C A11U A12G U32G G35C | 0.01
40 | A12C G27C G36U | 0.01
41 | A26C C31U U32A G36U C46U | 0.13
42 | G2C A16U G19U | 0.05
43 | A6U A25G G29A A39C | 0.03
44 | G17A C18G G27U G40C | 0.03
45 | A14U C18G C31G G35A | 0.02
46 | G2U C23U G30A | 0.08
47 | G2U A14U A24C | 0.02
48 | A4U U9A G19C U38C A41U | 0.1

Row | Variant | self-cleavage
49 | C13A C15G G22A | 0.02
50 | A6U A14G U32A G40U | 0.1
51 | A14U U20C C31G C42U | 0.07
52 | C13U C15A G19A U38A | 0.08
53 | A14G C18A A25C | 0.11
54 | A11C G19A C31A | 0.01
55 | G19A G29U C31G | 0.25
56 | G5C G7U A41G | 0.12
57 | G5C G30A G33C | 0.02
58 | A12U G21C C37U | 0.01
59 | A16C G44A C45A | 0.1
60 | G5U A16U A26U U32A G36C C45U | 0.01
61 | G7A G33U A39G C46A | 0.07
62 | G2U U9A A12G C13U G17U U32A G35A G36C U43C | 0.02
63 | A4C G21A A24C C42U | 0.04
64 | G7U C8G A14G A25U | 0.25
65 | U9A C13A G36U | 0.16
66 | C8G C13A U20C A26G | 0.04
67 | U20C G21A U28G C31A | 1.24
68 | G7A G29C G36C U38A | 0.11
69 | A16C G17U G33U G40C G44U | 0.06
70 | A6U A16G U38C | 0.1
71 | A4U G5U G19A | 0.05
72 | G2C G7A C8G A16C A24C U38C | 0.08

Row | Variant | self-cleavage
73 | G22C U32A G44A C46G | 0.03
74 | G22U G40A C46U | 0.08
75 | C10A G19U C23G | 0.01
76 | C10U G21C G30U | 0.18
77 | U9G A12C U20G | 0.01
78 | G5C C18G C42U | 0.6
79 | A4G C8U G17C G19A | 0.14
80 | A4U G17A G21C | 0.13
81 | G40A A41U G44U | 0.03
82 | G7C C10A U20C G27A | 0.05
83 | C13G C23A A39U | 0.02
84 | G2A U20A G33A G35A | 0.11
85 | C3U G19A C45U | 0.65
86 | G1U G2U C8G C10U U28G G29U U38C U43C | 0
87 | C3U C10U U43G C45U | 0.11
88 | U28G A41U C42U | 0.01
89 | G1C G21A G40U | 0.01
90 | C3G A39C G44U | 0.07
91 | G1C C3U C10A A16C U34C G36U | 0.02
92 | C3A C23A G36U | 0.04
93 | G1C U28A C45U | 0.19
94 | G5C A6C G29C | 0.05
95 | A16G A25U G30U | 0.21
96 | C31A U32C G36C U43C | 0.05

Row | Variant | self-cleavage
97 | G1U A4U G5A C10G A41C | 0.02
98 | C18A U20C C42A | 0.05
99 | U9G G19A G40A | 0.05
100 | C3A C8G A11U | 0.05
101 | C10U G44U C45A | 0.01
102 | U9A C23A A25U C42G | 0.06
103 | G5U A11C U20A A25C C31U A39U | 0
104 | G7U C8U A11C G27C C46U | 0.03
105 | G5U U43C G44U | 0.27
106 | C3G C31U U32A | 0.66
107 | A4G G19A U32C G40C A41C | 0.02
108 | G1A A11G G17A U32A G35C | 0
109 | G1C C15A C31U C46U | 0.01
110 | U20A A41U C42A | 0.01
111 | C10A C23A G30U | 0.02
112 | C8U C18A C23G | 0.33
113 | A4U C10A A14C C15U C31A | 0.02
114 | U9A A24G U38A A41C C42U | 0.04
115 | G7A A11U A12C G17A G27A G35A | 0.01
116 | A6C C8G C10A G44A | 0.03
117 | C8G A11C G30A U38C G40U | 0.01
118 | A6G C15A A24C U32C | 0.21
119 | G5C C10U G21U A26C G35U C37A | 0.03
120 | G19A A24U A25C G27U | 0.53

Row | Variant | self-cleavage
121 | C8G C15A G22C | 0.03
122 | A14C G17C C31G C46A | 0
123 | C10U G29U G36U G44A | 0.01
124 | A11U A16C U38G | 0.02
125 | G21U G35U C42U C46U | 0.08
126 | G22U A25U C42A | 0.3
127 | G2C G5U C45A | 0.02
128 | G2U C3A A4G C23U C31U U34C G36C | 0.02
129 | A11G G17C G44U | 0.02
130 | C3A A25G G44U | 1.14
131 | G2A G5A C18A G22A | 0.11
132 | C31G U34A C46U | 0.02
133 | A4U G17U C31G | 0.04
134 | G5A G17A C31G A41G | 0.02
135 | G33C G36A G40A | 0.05
136 | G1C G2U C10A U28G | 0.04
137 | A16C A25G G29U C31U G33C | 0.03
138 | C15U G30A G44U | 0.05
139 | G5C U34G C42A U43G | 0.02
140 | C8U G21A C23G G40C | 0.15
141 | A6G G22A C45A | 0.01
142 | G1U A11G A12C U32A C42A U43C | 0
143 | G7A C31G C42G | 0.03
144 | G2C U28G A41C | 0.02

Row | Variant | self-cleavage
145 | A16C U20A G27A A41G | 0.04
146 | A6U C10G G29U U43G G44U | 0.02
147 | G5A A26G G29U G35U | 0.24
148 | C3G G17C G21U | 0.6
149 | G5A C13A C18U A24U | 0.04
150 | A24C G29U U43A | 0.01
151 | G7A U34C U38G | 0.01
152 | G2C A11C A12C U32G | 0.01
153 | A4C C8G C10U A26U G44C | 0.11
154 | C3G C10U A26U U28A G36C | 0.09
155 | U20C C31G G33A | 0.02
156 | C8U A12U U34A G35C G36U | 0.06
157 | C18A G36U A41G | 0.04
158 | A6C G33A C46U | 0.11
159 | G2A G21C C31G | 0.1
160 | A12G G27U G35A | 0.03
161 | G19U U34C C45U | 0.26
162 | A26G G30A G44U | 0.07
163 | C8U A26U C42A | 0.07
164 | C13U G30A G44A | 0.04
165 | G5U C23U A26G | 0.03
166 | G1C C42G C46G | 0.01
167 | C10A A11C C13A U20G G22C C23A G33U | 0.01
